# Data taken from the supplement of paper PMC8728848.
# Some of the results follow.
# B1: ZG-16 (Homo sapiens), O60844 (protein)
# chain: IQARSSSYSGEYGSGGGKRFSHSGNQLDGPITALRVRVNTYYIVGLQVRYGKVWSDYVGGRNGDLEEIFLHPGESVIQVSGKYKWYLKKLVFVTDKGRYLSFGKDSGTSFNAVPLHPNTVLRFISGRSGSLIDAIGLHWDVYPTSCSRCSRGSDDDDKAEPRGPTIKPCPPCKCPAPNLLGGPSVFIFPPKIKDVLMISLSPIVTCVVVDVSEDDPDVQISWFVNNVEVHTAQTQTHREDYNSTLRVVSALPIQHQDWMSGKEFKCKVNNKDLPAPIERTISKPKGSVRAPQVYVLPPPEEEMTKKQVTLTCMVTDFMPEDIYVEWTNNGKTELNYKNTEPVLDSDGSYFMYSKLRVEKKNWVERNSYSCSVVHEGLHNHHTTKSFSRTPGKRTYHHHHHHARKLTR
# Experiments:
# Assay in all cases: glycan array binding signal (z-score within array); higher = stronger binding
# Conditions in all cases: glycan notation: IUPAC condensed, linker removed
# [1] = target: GlcNAc6S(b1-3)Gal(b1-4)GlcNAc
# Method in brief: (§1)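 Glycan array data came from 3228 arrays in the Consortium for Functional Glycomics database, and only arrays with an available protein sequence were kept. Glycan names were put into IUPAC-condensed notation, and columns mapping to the same glycan were averaged. The binding signal is a within-array Z-score, averaged across arrays of one protein sequence run at different concentrations or buffers and across linkers. A negative Z-score can be read as non-binding.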
# Kdn(a2-3)Gal(b1-3)GalNAc = target: Kdn(a2-3)Gal(b1-3)GalNAc
# Method in brief: as §1
# Kdn(a2-3)Gal(b1-3)GlcNAc = target: Kdn(a2-3)Gal(b1-3)GlcNAc
# Method in brief: as §1
# Kdn(a2-3)Gal(b1-4)Glc = target: Kdn(a2-3)Gal(b1-4)Glc
# Method in brief: as §1
# Kdn(a2-3)Gal(b1-4)GlcNAc = target: Kdn(a2-3)Gal(b1-4)GlcNAc
# Method in brief: as §1
# [2] = target: Kdn(a2-3)Gal(b1-4)[Fuc(a1-3)]GlcNAc
# Method in brief: as §1
# Kdn(a2-6)Gal(b1-4)GlcNAc = target: Kdn(a2-6)Gal(b1-4)GlcNAc
# Method in brief: as §1
# [3] = target: Man(a1-2)Man(a1-2)Man(a1-3)Man
# Method in brief: as §1
# [4] = target: Man(a1-2)Man(a1-2)Man(a1-6)[Man(a1-3)]Man
# Method in brief: as §1
# Man(a1-2)Man(a1-3)Man = target: Man(a1-2)Man(a1-3)Man
# Method in brief: as §1
# [5] = target: Man(a1-2)Man(a1-3)[Man(a1-2)Man(a1-6)]Man
# Method in brief: as §1
# [6] = target: Man(a1-2)Man(a1-3)[Man(a1-2)Man(a1-6)]Man(a1-6)[Man(a1-2)Man(a1-2)Man(a1-3)]Man
# Method in brief: as §1
# [7] = target: Man(a1-2)Man(a1-3)[Man(a1-2)Man(a1-6)]Man(a1-6)[Man(a1-2)Man(a1-2)Man(a1-3)]Man(b1-4)GlcNAc(b1-4)GlcNAc
# Method in brief: as §1
# [8] = target: Man(a1-2)Man(a1-3)[Man(a1-6)]Man(a1-6)[Man(a1-2)Man(a1-3)]Man(b1-4)GlcNAc(b1-4)GlcNAc
# Method in brief: as §1
# [9] = target: Man(a1-2)Man(a1-6)[Man(a1-3)]Man(a1-6)[Man(a1-2)Man(a1-2)Man(a1-3)]Man
# Method in brief: as §1
# [10] = target: Man(a1-2)Man(a1-6)[Man(a1-3)]Man(a1-6)[Man(a1-2)Man(a1-2)Man(a1-3)]Man(b1-4)GlcNAc(b1-4)GlcNAc
# Method in brief: as §1
# Man(a1-3)[Man(a1-6)]Man = target: Man(a1-3)[Man(a1-6)]Man
# Method in brief: as §1
# [11] = target: Man(a1-3)[Man(a1-6)]Man(a1-6)[Man(a1-2)Man(a1-3)]Man(b1-4)GlcNAc(b1-4)GlcNAc
# Method in brief: as §1
# [12] = target: Man(a1-3)[Man(a1-6)]Man(a1-6)[Man(a1-3)]Man
# Method in brief: as §1
# [13] = target: Man(a1-3)[Man(a1-6)]Man(a1-6)[Man(a1-3)]Man(b1-4)GlcNAc(b1-4)GlcNAc
# Method in brief: as §1
# [14] = target: Man(a1-3)[Man(a1-6)]Man(b1-4)GlcNAc(b1-4)GlcNAc
# Method in brief: as §1
# Man(a1-6)Man = target: Man(a1-6)Man
# Method in brief: as §1
# Man(b1-4)GlcNAc = target: Man(b1-4)GlcNAc
# Method in brief: as §1
# Neu5Ac(a2-3)Gal = target: Neu5Ac(a2-3)Gal
# Method in brief: as §1
# [15] = target: Neu5Ac(a2-3)Gal(b1-3)GalNAc
# Method in brief: as §1
# [16] = target: Neu5Ac(a2-3)Gal(b1-3)GalNAc(b1-3)Gal(a1-4)Gal(b1-4)Glc
# Method in brief: as §1
# [17] = target: Neu5Ac(a2-3)Gal(b1-3)GalNAc(b1-4)[Neu5Ac(a2-3)]Gal(b1-4)Glc
# Method in brief: as §1
# [18] = target: Neu5Ac(a2-3)Gal(b1-3)GalNAc6S
# Method in brief: as §1
# [19] = target: Neu5Ac(a2-3)Gal(b1-3)GlcNAc
# Method in brief: as §1
# [20] = target: Neu5Ac(a2-3)Gal(b1-3)GlcNAc(b1-2)Man(a1-3)[Neu5Ac(a2-3)Gal(b1-3)GlcNAc(b1-2)Man(a1-6)]Man(b1-4)GlcNAc(b1-4)GlcNAc
# Method in brief: as §1
# [21] = target: Neu5Ac(a2-3)Gal(b1-3)GlcNAc(b1-3)Gal(b1-3)GlcNAc
# Method in brief: as §1
# [22] = target: Neu5Ac(a2-3)Gal(b1-3)GlcNAc(b1-3)Gal(b1-4)GlcNAc
# Method in brief: as §1
# [23] = target: Neu5Ac(a2-3)Gal(b1-3)GlcNAc(b1-3)GalNAc
# Method in brief: as §1
# [24] = target: Neu5Ac(a2-3)Gal(b1-3)GlcNAc6S
# Method in brief: as §1
# [25] = target: Neu5Ac(a2-3)Gal(b1-3)[Fuc(a1-4)]GlcNAc
# Method in brief: as §1
# [26] = target: Neu5Ac(a2-3)Gal(b1-3)[Fuc(a1-4)]GlcNAc(b1-3)Gal(b1-3)[Fuc(a1-4)]GlcNAc
# Method in brief: as §1
# [27] = target: Neu5Ac(a2-3)Gal(b1-3)[Fuc(a1-4)]GlcNAc(b1-3)Gal(b1-4)[Fuc(a1-3)]GlcNAc
# Method in brief: as §1
# [28] = target: Neu5Ac(a2-3)Gal(b1-3)[Neu5Ac(a2-3)Gal(b1-4)]GlcNAc
# Method in brief: as §1
# [29] = target: Neu5Ac(a2-3)Gal(b1-3)[Neu5Ac(a2-6)]GalNAc
# Method in brief: as §1
# Neu5Ac(a2-3)Gal(b1-4)Glc = target: Neu5Ac(a2-3)Gal(b1-4)Glc
# Method in brief: as §1
# [30] = target: Neu5Ac(a2-3)Gal(b1-4)GlcNAc
# Method in brief: as §1
# [31] = target: Neu5Ac(a2-3)Gal(b1-4)GlcNAc(b1-2)Man(a1-3)[GlcNAc(b1-2)Man(b1-4)GlcNAc(b1-2)Man(a1-6)]Man(b1-4)GlcNAc(b1-4)GlcNAc
# Method in brief: as §1
# [32] = target: Neu5Ac(a2-3)Gal(b1-4)GlcNAc(b1-2)Man(a1-3)[Neu5Ac(a2-6)Gal(b1-4)GlcNAc(b1-2)Man(a1-6)]Man(b1-4)GlcNAc(b1-4)GlcNAc
# Method in brief: as §1
# [33] = target: Neu5Ac(a2-3)Gal(b1-4)GlcNAc(b1-3)Gal(b1-3)GlcNAc
# Method in brief: as §1
# [34] = target: Neu5Ac(a2-3)Gal(b1-4)GlcNAc(b1-3)Gal(b1-4)GlcNAc
# Method in brief: as §1
binder,measurement,setting,value
B1,glycan array binding signal (z-score),[1],-0.2
same,glycan array binding signal (z-score),Kdn(a2-3)Gal(b1-3)GalNAc,-0.188
same,glycan array binding signal (z-score),Kdn(a2-3)Gal(b1-3)GlcNAc,-0.149
same,glycan array binding signal (z-score),Kdn(a2-3)Gal(b1-4)Glc,-0.216
same,glycan array binding signal (z-score),Kdn(a2-3)Gal(b1-4)GlcNAc,-0.17
same,glycan array binding signal (z-score),[2],-0.167
same,glycan array binding signal (z-score),Kdn(a2-6)Gal(b1-4)GlcNAc,-0.163
same,glycan array binding signal (z-score),[3],8.34
same,glycan array binding signal (z-score),[4],5.61
same,glycan array binding signal (z-score),Man(a1-2)Man(a1-3)Man,9.52
same,glycan array binding signal (z-score),[5],3.69
same,glycan array binding signal (z-score),[6],1.94
same,glycan array binding signal (z-score),[7],0.19
same,glycan array binding signal (z-score),[8],-0.082
same,glycan array binding signal (z-score),[9],5.95
same,glycan array binding signal (z-score),[10],-0.145
same,glycan array binding signal (z-score),Man(a1-3)[Man(a1-6)]Man,4.25
same,glycan array binding signal (z-score),[11],-0.041
same,glycan array binding signal (z-score),[12],1
same,glycan array binding signal (z-score),[13],0.09
same,glycan array binding signal (z-score),[14],-0.183
same,glycan array binding signal (z-score),Man(a1-6)Man,1.35
same,glycan array binding signal (z-score),Man(b1-4)GlcNAc,-0.143
same,glycan array binding signal (z-score),Neu5Ac(a2-3)Gal,-0.184
same,glycan array binding signal (z-score),[15],-0.217
same,glycan array binding signal (z-score),[16],-0.144
same,glycan array binding signal (z-score),[17],-0.163
same,glycan array binding signal (z-score),[18],-0.177
same,glycan array binding signal (z-score),[19],-0.105
same,glycan array binding signal (z-score),[20],-0.186
same,glycan array binding signal (z-score),[21],-0.133
same,glycan array binding signal (z-score),[22],-0.202
same,glycan array binding signal (z-score),[23],-0.209
same,glycan array binding signal (z-score),[24],-0.169
same,glycan array binding signal (z-score),[25],-0.202
same,glycan array binding signal (z-score),[26],-0.208
same,glycan array binding signal (z-score),[27],-0.201
same,glycan array binding signal (z-score),[28],-0.177
same,glycan array binding signal (z-score),[29],-0.126
same,glycan array binding signal (z-score),Neu5Ac(a2-3)Gal(b1-4)Glc,-0.181
same,glycan array binding signal (z-score),[30],-0.209
same,glycan array binding signal (z-score),[31],-0.116
same,glycan array binding signal (z-score),[32],-0.186
same,glycan array binding signal (z-score),[33],-0.211
same,glycan array binding signal (z-score),[34],-0.176
